Results: the supplement of paper PMC7826260
This is one part of the list. Each Rep nickase domain was tested in vitro on the same pool of single strands (1 h at 37 °C, 3 µM enzyme); the outer parts of the 90-letter strands are left off. Uncut reads are compared with the no-enzyme pool on a log2 scale; uncut sequences lie near 0, cut ones below; no hit call is given. Counts are relative to all reads; uncut strands gain when others are lost, and binding without cutting may add a little.

tested on: T1, Rep nickase domain of tomato golden mosaic virus; test: uncleaved DNA left, log2 of reads against the no-enzyme library (log2 ratio); higher = less cleavage (more negative = more Rep cleavage of the k-mer); sequences stand for … in CTCGTCCG…ACCGGAGA
T1 sequence (protein, residues 1-124, tag omitted): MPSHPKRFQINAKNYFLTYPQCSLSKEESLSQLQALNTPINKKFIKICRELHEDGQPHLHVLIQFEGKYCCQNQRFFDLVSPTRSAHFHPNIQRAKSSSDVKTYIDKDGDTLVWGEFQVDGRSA
Method: (§1)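 A pool of 90-nt single-stranded DNAs with seven random bases just before the constant AC of the nick site (name = the seven bases) was cut by 3 µM recombinant His6-SUMO-tagged Rep nickase domain (300 nM DNA, 50 mM HEPES pH 8.0, 50 mM NaCl, 1 mM MnCl2, 1 h, 37 °C, three replicates). Uncut DNA was amplified and sequenced.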

Question: CGAATTT was tested. Which “uncleaved DNA left (log2)” value did it give?
Answer: Its value is -0.0833.

Question: GCTCGCG was tested. Which “uncleaved DNA left (log2)” value did it give?
Answer: Its value is -0.263.

Question: GTGCGAC was tested. Which “uncleaved DNA left (log2)” value did it give?
Answer: The value was 0.0205.

Question: How did the “uncleaved DNA left (log2)” value turn out when CCGGGCA was run?
Answer: The value was 0.0188.

Question: CGTGCCC was tested. Which “uncleaved DNA left (log2)” value did it give?
Answer: Its value is -0.115.

Question: How did the “uncleaved DNA left (log2)” value turn out when GTGAGCT was run?
Answer: The value was -0.132.

Question: Which “uncleaved DNA left (log2)” value does the source give for CTTCTAG here?
Answer: Its value is -0.0221.

Question: TCCGCGT was tested. Which “uncleaved DNA left (log2)” value did it give?
Answer: The value was -0.0439.

Question: Which “uncleaved DNA left (log2)” value does the source give for ACACTCC here?
Answer: Its value is 0.0743.

Question: For CAAGTTA, which “uncleaved DNA left (log2)” value is on record?
Answer: The value was -0.0645.

Question: For TTCAGTT, which “uncleaved DNA left (log2)” value is on record?
Answer: Its value is -0.0454.

Question: GTCGATA was tested. Which “uncleaved DNA left (log2)” value did it give?
Answer: Its value is 0.079.

Question: For TCGTGTT, which “uncleaved DNA left (log2)” value is on record?
Answer: Its value is -0.887.

Question: How did the “uncleaved DNA left (log2)” value turn out when ATGATAT was run?
Answer: Its value is 0.0387.

Question: TAGGTTA was tested. Which “uncleaved DNA left (log2)” value did it give?
Answer: The value was 0.113.

Question: Which “uncleaved DNA left (log2)” value does the source give for CCTCCGA here?
Answer: Its value is -0.00108.

Question: How did the “uncleaved DNA left (log2)” value turn out when AGAAAGG was run?
Answer: The value was 0.199.

Question: Which “uncleaved DNA left (log2)” value does the source give for TTGGATC here?
Answer: The value was -0.00759.

Question: How did the “uncleaved DNA left (log2)” value turn out when TCACATG was run?
Answer: The value was -0.0493.

Question: How did the “uncleaved DNA left (log2)” value turn out when CACCCCG was run?
Answer: Its value is -0.0321.

tested on: T2, Rep nickase domain of tomato yellow leaf curl virus; test: as above
T2 sequence (protein, residues 1-136, tag omitted): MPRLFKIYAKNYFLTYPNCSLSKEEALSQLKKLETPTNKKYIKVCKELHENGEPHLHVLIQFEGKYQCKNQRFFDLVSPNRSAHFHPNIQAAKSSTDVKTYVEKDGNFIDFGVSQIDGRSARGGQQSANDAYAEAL
Method: as §1

Question: How did the “uncleaved DNA left (log2)” value turn out when GGTGGTG was run?
Answer: Its value is 0.0538.

Question: GGCTTCC was tested. Which “uncleaved DNA left (log2)” value did it give?
Answer: Its value is 0.00141.

Question: For ACGGGAA, which “uncleaved DNA left (log2)” value is on record?
Answer: Its value is -0.0276.

Question: Which “uncleaved DNA left (log2)” value does the source give for CTGGGCC here?
Answer: The value was -0.0327.

Question: ACAGAAG was tested. Which “uncleaved DNA left (log2)” value did it give?
Answer: Its value is 0.089.

Question: Which “uncleaved DNA left (log2)” value does the source give for GCTGTAT here?
Answer: Its value is -0.0606.

Question: How did the “uncleaved DNA left (log2)” value turn out when TCAGACT was run?
Answer: The value was -0.0253.

Question: For ATGCGAC, which “uncleaved DNA left (log2)” value is on record?
Answer: Its value is -0.0454.

Question: How did the “uncleaved DNA left (log2)” value turn out when ATCAGCT was run?
Answer: Its value is -0.0555.

Question: ACCTAAA was tested. Which “uncleaved DNA left (log2)” value did it give?
Answer: Its value is 0.0736.

Question: CCGGTTC was tested. Which “uncleaved DNA left (log2)” value did it give?
Answer: Its value is -0.0513.

Question: For CCACATG, which “uncleaved DNA left (log2)” value is on record?
Answer: Its value is 0.107.

Question: Which “uncleaved DNA left (log2)” value does the source give for CTATCTA here?
Answer: The value was 0.0842.

Question: How did the “uncleaved DNA left (log2)” value turn out when AGGCCAG was run?
Answer: The value was -0.0534.

Question: For CGTCCGA, which “uncleaved DNA left (log2)” value is on record?
Answer: Its value is 0.0522.

Question: Which “uncleaved DNA left (log2)” value does the source give for GGATCAT here?
Answer: The value was -0.0919.

Question: For ATAGTTA, which “uncleaved DNA left (log2)” value is on record?
Answer: The value was -0.065.

Question: For CTATACA, which “uncleaved DNA left (log2)” value is on record?
Answer: The value was 0.123.

Question: With CATTGCA as the sequence, how does the “uncleaved DNA left (log2)” value read?
Answer: Its value is 0.109.

Question: TCTGCAC was tested. Which “uncleaved DNA left (log2)” value did it give?
Answer: Its value is -0.196.

Question: CGAATTT was tested. Which “uncleaved DNA left (log2)” value did it give?
Answer: The value was -0.031.

Question: For GCTCGCG, which “uncleaved DNA left (log2)” value is on record?
Answer: Its value is -0.039.

Question: GTGCGAC was tested. Which “uncleaved DNA left (log2)” value did it give?
Answer: Its value is -0.0299.

Question: Which “uncleaved DNA left (log2)” value does the source give for CCGGGCA here?
Answer: The value was -0.116.

Question: How did the “uncleaved DNA left (log2)” value turn out when CGTGCCC was run?
Answer: The value was -0.0425.

Question: Which “uncleaved DNA left (log2)” value does the source give for GTGAGCT here?
Answer: Its value is 0.0656.

Question: Which “uncleaved DNA left (log2)” value does the source give for CTTCTAG here?
Answer: The value was 0.187.

Question: For TCCGCGT, which “uncleaved DNA left (log2)” value is on record?
Answer: Its value is 0.0645.

Question: ACACTCC was tested. Which “uncleaved DNA left (log2)” value did it give?
Answer: Its value is -0.104.

Question: For CAAGTTA, which “uncleaved DNA left (log2)” value is on record?
Answer: Its value is -0.0512.

Question: For TTCAGTT, which “uncleaved DNA left (log2)” value is on record?
Answer: The value was -0.00625.

Question: Which “uncleaved DNA left (log2)” value does the source give for GTCGATA here?
Answer: Its value is -0.195.

Question: TCGTGTT was tested. Which “uncleaved DNA left (log2)” value did it give?
Answer: Its value is -0.0451.

Question: Which “uncleaved DNA left (log2)” value does the source give for ATGATAT here?
Answer: The value was -0.0647.

Question: How did the “uncleaved DNA left (log2)” value turn out when TAGGTTA was run?
Answer: Its value is -0.0476.

Question: Which “uncleaved DNA left (log2)” value does the source give for CCTCCGA here?
Answer: Its value is -0.06.

Question: Which “uncleaved DNA left (log2)” value does the source give for AGAAAGG here?
Answer: The value was 0.11.

Question: With TTGGATC as the sequence, how does the “uncleaved DNA left (log2)” value read?
Answer: Its value is -0.118.

Question: For TCACATG, which “uncleaved DNA left (log2)” value is on record?
Answer: The value was -0.0715.

Question: How did the “uncleaved DNA left (log2)” value turn out when CACCCCG was run?
Answer: The value was -0.0872.

tested on: T3, Rep nickase domain of wheat dwarf virus; test: as above
T3 sequence (protein, residues 1-137, tag omitted): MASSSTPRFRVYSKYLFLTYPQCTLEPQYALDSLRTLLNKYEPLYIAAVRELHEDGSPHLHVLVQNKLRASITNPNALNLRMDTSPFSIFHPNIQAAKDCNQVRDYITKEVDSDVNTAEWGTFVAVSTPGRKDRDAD
Method: as §1

Question: With GGTGGTG as the sequence, how does the “uncleaved DNA left (log2)” value read?
Answer: Its value is 0.0926.

Question: GGCTTCC was tested. Which “uncleaved DNA left (log2)” value did it give?
Answer: The value was 0.162.

Question: ACGGGAA was tested. Which “uncleaved DNA left (log2)” value did it give?
Answer: Its value is -0.0447.

Question: With CTGGGCC as the sequence, how does the “uncleaved DNA left (log2)” value read?
Answer: Its value is -0.041.

Question: For ACAGAAG, which “uncleaved DNA left (log2)” value is on record?
Answer: The value was 0.0512.

Question: With GCTGTAT as the sequence, how does the “uncleaved DNA left (log2)” value read?
Answer: Its value is 0.0254.

Question: TCAGACT was tested. Which “uncleaved DNA left (log2)” value did it give?
Answer: The value was 0.0531.

Question: With ATGCGAC as the sequence, how does the “uncleaved DNA left (log2)” value read?
Answer: Its value is -0.0255.

Question: With ATCAGCT as the sequence, how does the “uncleaved DNA left (log2)” value read?
Answer: The value was -0.0714.

Question: For ACCTAAA, which “uncleaved DNA left (log2)” value is on record?
Answer: The value was 0.0431.

Question: CCGGTTC was tested. Which “uncleaved DNA left (log2)” value did it give?
Answer: The value was -0.0357.

Question: CCACATG was tested. Which “uncleaved DNA left (log2)” value did it give?
Answer: The value was -0.14.

Question: CTATCTA was tested. Which “uncleaved DNA left (log2)” value did it give?
Answer: Its value is 0.117.

Question: AGGCCAG was tested. Which “uncleaved DNA left (log2)” value did it give?
Answer: The value was -0.0647.

Question: With CGTCCGA as the sequence, how does the “uncleaved DNA left (log2)” value read?
Answer: Its value is -0.014.

Question: For GGATCAT, which “uncleaved DNA left (log2)” value is on record?
Answer: Its value is 0.0883.

Question: Which “uncleaved DNA left (log2)” value does the source give for ATAGTTA here?
Answer: The value was 0.0115.

Question: With CTATACA as the sequence, how does the “uncleaved DNA left (log2)” value read?
Answer: Its value is 0.17.

Question: With CATTGCA as the sequence, how does the “uncleaved DNA left (log2)” value read?
Answer: Its value is -0.00274.

Question: With TCTGCAC as the sequence, how does the “uncleaved DNA left (log2)” value read?
Answer: The value was -0.265.

Question: How did the “uncleaved DNA left (log2)” value turn out when CGAATTT was run?
Answer: The value was -0.0323.

Question: Which “uncleaved DNA left (log2)” value does the source give for GCTCGCG here?
Answer: The value was -0.193.

Question: Which “uncleaved DNA left (log2)” value does the source give for GTGCGAC here?
Answer: Its value is -0.0403.

Question: CCGGGCA was tested. Which “uncleaved DNA left (log2)” value did it give?
Answer: Its value is -0.0222.

Question: How did the “uncleaved DNA left (log2)” value turn out when CGTGCCC was run?
Answer: The value was -0.166.

Question: For GTGAGCT, which “uncleaved DNA left (log2)” value is on record?
Answer: Its value is -0.0391.

Question: For CTTCTAG, which “uncleaved DNA left (log2)” value is on record?
Answer: The value was 0.086.

Question: Which “uncleaved DNA left (log2)” value does the source give for TCCGCGT here?
Answer: Its value is -0.111.

Question: How did the “uncleaved DNA left (log2)” value turn out when ACACTCC was run?
Answer: The value was 0.0355.

Question: Which “uncleaved DNA left (log2)” value does the source give for CAAGTTA here?
Answer: The value was -0.0383.

Question: TTCAGTT was tested. Which “uncleaved DNA left (log2)” value did it give?
Answer: The value was -0.193.

Question: For GTCGATA, which “uncleaved DNA left (log2)” value is on record?
Answer: Its value is 0.0385.

Question: For TCGTGTT, which “uncleaved DNA left (log2)” value is on record?
Answer: The value was -2.01.

Question: How did the “uncleaved DNA left (log2)” value turn out when ATGATAT was run?
Answer: The value was -0.11.

Question: How did the “uncleaved DNA left (log2)” value turn out when TAGGTTA was run?
Answer: The value was 0.121.

Question: CCTCCGA was tested. Which “uncleaved DNA left (log2)” value did it give?
Answer: The value was -0.0597.

Question: For AGAAAGG, which “uncleaved DNA left (log2)” value is on record?
Answer: The value was 0.2.

Question: TTGGATC was tested. Which “uncleaved DNA left (log2)” value did it give?
Answer: Its value is -0.153.

Question: TCACATG was tested. Which “uncleaved DNA left (log2)” value did it give?
Answer: Its value is -0.135.

Question: CACCCCG was tested. Which “uncleaved DNA left (log2)” value did it give?
Answer: Its value is -0.146.
